The other results are listed elsewhere or left out. Repeats are few or missing, and single values can be far off.
Legend:
Assay in all cases: cell count relative to DMSO control; melanoma cells; higher = more viable cells
Conditions in all cases: library dose: standard library concentration; 72 h
G361 = test system: G361
IPC-298 = test system: IPC-298
IST-MEL1 = test system: IST-MEL1
LB2518-MEL = test system: LB2518-MEL
LOXIMVI = test system: LOXIMVI
MEL-HO = test system: MEL-HO
MZ2-MEL = test system: MZ2-MEL
MeWo = test system: MeWo
RPMI7951 = test system: RPMI7951
RVH-421 = test system: RVH-421
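Note: cells treated in 1,536-well plates, then fixed and DAPI-stained, with nuclei counted from automated high-throughput microscope images.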

Structure (SMILES) | cell count (G361) | cell count (IPC-298) | cell count (IST-MEL1) | cell count (LB2518-MEL) | cell count (LOXIMVI) | cell count (MEL-HO) | cell count (MZ2-MEL) | cell count (MeWo) | cell count (RPMI7951) | cell count (RVH-421)
Cc1ccc(Nc2nccc(N(C)c3ccc4c(C)n(C)nc4c3)n2)cc1S(N)(=O)=O [Pazopanib] + CCCCCCCCc1ccc(CCC(N)(CO)CO)cc1 [fingolimod] (first compound 2 µM, partner dose 10 µM) | 1.24% | 49.4% | 5.7% | 0.211% | 10.7% | 3.62% | 0.772% | 18.2% | 1.12% | 6.58%
CC1(C)CCC(c2ccc(Cl)cc2)=C(CN2CCN(c3ccc(C(=O)NS(=O)(=O)c4ccc(N[C@H](CCN5CCOCC5)CSc5ccccc5)c(S(=O)(=O)C(F)(F)F)c4)cc3)CC2)C1 + Clc1ccc(Nc2nnc(Cc3ccncc3)c3ccccc23)cc1 [vatalanib] (first compound 2 µM, partner dose 10 µM) | 32.6% | 67.5% | 25.1% | 62.1% | 20.3% | 24.5% | 48.9% | 45% | 17.8% | 16.1%
Cc1ccc(Nc2nccc(N(C)c3ccc4c(C)n(C)nc4c3)n2)cc1S(N)(=O)=O [Pazopanib] + CS(=O)(=O)c1ccc(C(=O)Nc2ccc(Cl)c(-c3ccccn3)c2)c(Cl)c1 [vismodegib] (first compound 2 µM, partner dose 5 µM) | 84.7% | 75.4% | 119% | 124% | 120% | 109% | 76.8% | 82.5% | 117% | 128%
CC1(C)CCC(c2ccc(Cl)cc2)=C(CN2CCN(c3ccc(C(=O)NS(=O)(=O)c4ccc(N[C@H](CCN5CCOCC5)CSc5ccccc5)c(S(=O)(=O)C(F)(F)F)c4)cc3)CC2)C1 + Nc1ccn([C@@H]2O[C@H](CO)[C@@H](O)C2(F)F)c(=O)n1 [gemcitabine] (first compound 2 µM, partner dose 0.002 µM) | 21.5% | 37.4% | 20.1% | 43.9% | 30.3% | 22.9% | 53.9% | 43.2% | 19.6% | 16.6%
Cc1ccc(Nc2nccc(N(C)c3ccc4c(C)n(C)nc4c3)n2)cc1S(N)(=O)=O [Pazopanib] + Cn1c(=O)n(-c2ccc(C(C)(C)C#N)cc2)c2c3cc(-c4cnc5ccccc5c4)ccc3ncc21 [NVP-BEZ235] (first compound 2 µM, partner dose 0.02 µM) | 60.6% | 50.3% | 80.4% | 71.1% | 75.8% | 57.2% | 63.4% | 57.7% | 54.9% | 91%
CC1(C)CCC(c2ccc(Cl)cc2)=C(CN2CCN(c3ccc(C(=O)NS(=O)(=O)c4ccc(N[C@H](CCN5CCOCC5)CSc5ccccc5)c(S(=O)(=O)C(F)(F)F)c4)cc3)CC2)C1 + CN(NC(=O)CC(=O)NN(C)C(=S)c1ccccc1)C(=S)c1ccccc1 [STA4783] (first compound 2 µM, partner dose 0.03 µM) | 21.6% | 69.4% | 5.2% | 10.1% | 20.4% | 48.2% | 100% | 16.7% | 26.2% | 14.2%
CC1(C)CCC(c2ccc(Cl)cc2)=C(CN2CCN(c3ccc(C(=O)NS(=O)(=O)c4ccc(N[C@H](CCN5CCOCC5)CSc5ccccc5)c(S(=O)(=O)C(F)(F)F)c4)cc3)CC2)C1 + Cc1ccc(Nc2nccc(N(C)c3ccc4c(C)n(C)nc4c3)n2)cc1S(N)(=O)=O [Pazopanib] (first compound 2 µM, partner dose 2 µM) | 60.9% | 63.6% | 70.7% | 87% | 54.6% | 53% | 72.9% | 90.7% | 53.9% | 40.6%
Cc1ccc(Nc2nccc(N(C)c3ccc4c(C)n(C)nc4c3)n2)cc1S(N)(=O)=O [Pazopanib] + Cc1cc(Nc2cc(N3CCN(C)CC3)nc(/C=C/c3ccccc3)n2)n[nH]1 [ENMD2076] (first compound 2 µM, partner dose 0.2 µM) | 74% | 63.7% | 88.6% | 68.9% | 51.8% | 77.6% | 62.3% | 72.4% | 60.3% | 74.9%
Cc1ccc(Nc2nccc(N(C)c3ccc4c(C)n(C)nc4c3)n2)cc1S(N)(=O)=O [Pazopanib] + O=C(Nc1cccc(Cl)c1)Nc1ncc(CCNc2ncnc3ccsc23)s1 [SNS314] (first compound 2 µM, partner dose 0.004 µM) | 66% | 62.5% | 59% | 60.1% | 56.8% | 66.2% | 65.2% | 63.4% | 47.4% | 73%
Cc1ccc(Nc2nccc(N(C)c3ccc4c(C)n(C)nc4c3)n2)cc1S(N)(=O)=O [Pazopanib] + OCc1c[nH]c2ccccc12 [Indole-3-carbinol] (first compound 2 µM, partner dose 4 µM) | 102% | 69.5% | 92.6% | 83.6% | 62.4% | 86.2% | 68.9% | 81.2% | 68.8% | 27.2%
Cc1ccc(Nc2nccc(N(C)c3ccc4c(C)n(C)nc4c3)n2)cc1S(N)(=O)=O [Pazopanib] + CCc1ccc(CCOc2ccc(CC3SC(=O)NC3=O)cc2)nc1 [pioglitazone] (first compound 2 µM, partner dose 10 µM) | 80.6% | 78.8% | 101% | 83% | 96.5% | 105% | 72.7% | 82.7% | 85% | 108%
O=C(/C=C/c1cccnc1)NCCCCC1CCN(C(=O)c2ccccc2)CC1 + O=C(O)c1ccc2c(c1)nc(Nc1cccc(Cl)c1)c1ccncc12 [CX4945] (first compound 0.05 µM, partner dose 2 µM) | 2.79% | 32.5% | 55.5% | 64.6% | 55.7% | 32.3% | 27.2% | 93.3% | 75.5% | 38.7%
CC1(C)CCC(c2ccc(Cl)cc2)=C(CN2CCN(c3ccc(C(=O)NS(=O)(=O)c4ccc(N[C@H](CCN5CCOCC5)CSc5ccccc5)c(S(=O)(=O)C(F)(F)F)c4)cc3)CC2)C1 + Cn1cncc1[C@@](N)(c1ccc(Cl)cc1)c1ccc2c(c1)c(-c1cccc(Cl)c1)cc(=O)n2C [tipifarnib] (first compound 2 µM, partner dose 0.05 µM) | 56.5% | 79.8% | 40.1% | 54.4% | 34.2% | 47.3% | 94.5% | 70.5% | 28.8% | 39.4%
CC1(C)CCC(c2ccc(Cl)cc2)=C(CN2CCN(c3ccc(C(=O)NS(=O)(=O)c4ccc(N[C@H](CCN5CCOCC5)CSc5ccccc5)c(S(=O)(=O)C(F)(F)F)c4)cc3)CC2)C1 + Nc1ncn([C@H]2C[C@H](O)[C@@H](CO)O2)c(=O)n1 [decitabine] (first compound 2 µM, partner dose 0.5 µM) | 71.3% | 64.6% | 61.3% | 69.7% | 26.7% | 45.8% | 53.5% | 58.6% | 28.4% | 56.8%
Cc1ccc(Nc2nccc(N(C)c3ccc4c(C)n(C)nc4c3)n2)cc1S(N)(=O)=O [Pazopanib] + COc1ccc(COc2ccc(Cc3cnc(N)nc3N)cc2OC)cc1 [GW2580] (first compound 2 µM, partner dose 5 µM) | 80.5% | 57.7% | 107% | 77.2% | 101% | 86.8% | 63.2% | 88.4% | 91.4% | 100%
Cc1ccc(Nc2nccc(N(C)c3ccc4c(C)n(C)nc4c3)n2)cc1S(N)(=O)=O [Pazopanib] + Cc1cc(N2CCOCC2)cc2[nH]c(-c3c(NC[C@@H](O)c4cccc(Cl)c4)cc[nH]c3=O)nc12 [BMS536924] (first compound 2 µM, partner dose 1 µM) | 67.1% | 81.9% | 81.9% | 71.1% | 63.1% | 87.8% | 104% | 66.5% | 105% | 94.6%
O=C(/C=C/c1cccnc1)NCCCCC1CCN(C(=O)c2ccccc2)CC1 + Clc1ccc(Nc2nnc(Cc3ccncc3)c3ccccc23)cc1 [vatalanib] (first compound 0.05 µM, partner dose 10 µM) | 3.23% | 25.4% | 66.7% | 73.9% | 57% | 40.3% | 21.2% | 74.5% | 79.9% | 36.2%
CC1(C)CCC(c2ccc(Cl)cc2)=C(CN2CCN(c3ccc(C(=O)NS(=O)(=O)c4ccc(N[C@H](CCN5CCOCC5)CSc5ccccc5)c(S(=O)(=O)C(F)(F)F)c4)cc3)CC2)C1 + C[C@]1(O)C[C@@H](c2nc(-c3ccc4ccc(-c5ccccc5)nc4c3)c3c(N)nccn32)C1 [OSI906] (first compound 2 µM, partner dose 2 µM) | 70.2% | 77.3% | 76.1% | 73.8% | 43.5% | 64% | 66.7% | 73.2% | 37.9% | 58.6%
Cc1ccc(Nc2nccc(N(C)c3ccc4c(C)n(C)nc4c3)n2)cc1S(N)(=O)=O [Pazopanib] + NC1(c2ccc(-c3nc4ccn5c(=O)[nH]nc5c4cc3-c3ccccc3)cc2)CCC1 [MK2206] (first compound 2 µM, partner dose 2 µM) | 88.4% | 74.3% | 107% | 67.8% | 63.4% | 82.9% | 76.1% | 98.8% | 57.4% | 76.9%
O=C(/C=C/c1cccnc1)NCCCCC1CCN(C(=O)c2ccccc2)CC1 + C[C@]1(O)C[C@@H](c2nc(-c3ccc4ccc(-c5ccccc5)nc4c3)c3c(N)nccn32)C1 [OSI906] (first compound 0.05 µM, partner dose 2 µM) | 8.4% | 30.3% | 75.5% | 58.3% | 107% | 50.7% | 36.3% | 71.3% | 80% | 60.4%
